Measured values taken from paper PMC9911399, “Two distinct binding modes provide the RNA-binding protein RbFox with extraordinary sequence specificity”.
Residue numbers refer to the chain shown, from its start. The list shows a part of the results.

T1: RBFOX1 RRM RbFoxmut (Fox-RRM*) (Homo sapiens, UniProt Q9NWB1 109-208, R118D;E147R;N151S;E152T)
T1 sequence: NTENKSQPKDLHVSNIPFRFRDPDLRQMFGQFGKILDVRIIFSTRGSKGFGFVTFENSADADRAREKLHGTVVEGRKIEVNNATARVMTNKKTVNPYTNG

B1: UUCUUGC (DNA:RNA)
RNA: GGGAGACCGGAAUUCAGAUUGUCCUUCUUGCUUAAAUCCCGUCGUAGCCACCA
DNA 1: CAATCTGAATTCCGGTCTCCC
DNA 2: TGGTGGCTACGACGGGATT
B2: CACUGGC (DNA:RNA)
RNA: B1 RNA with U25C, U26A, U29G
DNA 1: CAATCTGAATTCCGGTCTCCC
DNA 2: TGGTGGCTACGACGGGATT
B3: AUAGUGU (DNA:RNA)
RNA: B1 RNA with U25A, C27A, U28G, C31U
DNA 1: CAATCTGAATTCCGGTCTCCC
DNA 2: TGGTGGCTACGACGGGATT
B4: UUAAACG (DNA:RNA)
RNA: B1 RNA with C27A, U28A, U29A, G30C, C31G
DNA 1: CAATCTGAATTCCGGTCTCCC
DNA 2: TGGTGGCTACGACGGGATT
B5: UGUAAUU (DNA:RNA)
RNA: B1 RNA with U26G, C27U, U28A, U29A, G30U, C31U
DNA 1: CAATCTGAATTCCGGTCTCCC
DNA 2: TGGTGGCTACGACGGGATT
B6: AGAGAAU (DNA:RNA)
RNA: GGGAGACCGGAAUUCAGAUUGUCCAGAGAAUUUAAAUCCCGUCGUAGCCACCA
DNA 1: CAATCTGAATTCCGGTCTCCC
DNA 2: TGGTGGCTACGACGGGATT
B7: ACAACGU (DNA:RNA)
RNA: B6 RNA with G26C, G28A, A29C, A30G
DNA 1: CAATCTGAATTCCGGTCTCCC
DNA 2: TGGTGGCTACGACGGGATT
B8: UACACCA (DNA:RNA)
RNA: B1 RNA with U26A, U28A, U29C, G30C, C31A
DNA 1: CAATCTGAATTCCGGTCTCCC
DNA 2: TGGTGGCTACGACGGGATT
B9: GAAGAAA (DNA:RNA)
RNA: B6 RNA with A25G, G26A, U31A
DNA 1: CAATCTGAATTCCGGTCTCCC
DNA 2: TGGTGGCTACGACGGGATT
B10: GAAUAUA (DNA:RNA)
RNA: B6 RNA with A25G, G26A, G28U, A30U, U31A
DNA 1: CAATCTGAATTCCGGTCTCCC
DNA 2: TGGTGGCTACGACGGGATT
B11: CCCUCAU (DNA:RNA)
RNA: B6 RNA with A25C, G26C, A27C, G28U, A29C
DNA 1: CAATCTGAATTCCGGTCTCCC
DNA 2: TGGTGGCTACGACGGGATT
B12: GGUCAUU (DNA:RNA)
RNA: B6 RNA with A25G, A27U, G28C, A30U
DNA 1: CAATCTGAATTCCGGTCTCCC
DNA 2: TGGTGGCTACGACGGGATT
B13: AAGCCUU (DNA:RNA)
RNA: B6 RNA with G26A, A27G, G28C, A29C, A30U
DNA 1: CAATCTGAATTCCGGTCTCCC
DNA 2: TGGTGGCTACGACGGGATT
B14: UGACAUU (DNA:RNA)
RNA: B6 RNA with A25U, G28C, A30U
DNA 1: CAATCTGAATTCCGGTCTCCC
DNA 2: TGGTGGCTACGACGGGATT
B15: CAUUCUC (DNA:RNA)
RNA: B1 RNA with U25C, U26A, C27U, U29C, G30U
DNA 1: CAATCTGAATTCCGGTCTCCC
DNA 2: TGGTGGCTACGACGGGATT
B16: UCUGUCU (DNA:RNA)
RNA: B6 RNA with A25U, G26C, A27U, A29U, A30C
DNA 1: CAATCTGAATTCCGGTCTCCC
DNA 2: TGGTGGCTACGACGGGATT
B17: AUACGGG (DNA:RNA)
RNA: B6 RNA with G26U, G28C, A29G, A30G, U31G
DNA 1: CAATCTGAATTCCGGTCTCCC
DNA 2: TGGTGGCTACGACGGGATT
B18: AAGAGCA (DNA:RNA)
RNA: B6 RNA with G26A, A27G, G28A, A29G, A30C, U31A
DNA 1: CAATCTGAATTCCGGTCTCCC
DNA 2: TGGTGGCTACGACGGGATT
B19: CCCGAGC (DNA:RNA)
RNA: B1 RNA with U25C, U26C, U28G, U29A
DNA 1: CAATCTGAATTCCGGTCTCCC
DNA 2: TGGTGGCTACGACGGGATT
B20: ACUCAAA (DNA:RNA)
RNA: B6 RNA with G26C, A27U, G28C, U31A
DNA 1: CAATCTGAATTCCGGTCTCCC
DNA 2: TGGTGGCTACGACGGGATT
B21: ACAUAGC (DNA:RNA)
RNA: B6 RNA with G26C, G28U, A30G, U31C
DNA 1: CAATCTGAATTCCGGTCTCCC
DNA 2: TGGTGGCTACGACGGGATT
B22: GGCGUUG (DNA:RNA)
RNA: B6 RNA with A25G, A27C, A29U, A30U, U31G
DNA 1: CAATCTGAATTCCGGTCTCCC
DNA 2: TGGTGGCTACGACGGGATT
B23: UCCCUAC (DNA:RNA)
RNA: B1 RNA with U26C, U28C, G30A
DNA 1: CAATCTGAATTCCGGTCTCCC
DNA 2: TGGTGGCTACGACGGGATT
B24: GCGGAGG (DNA:RNA)
RNA: B6 RNA with A25G, G26C, A27G, A30G, U31G
DNA 1: CAATCTGAATTCCGGTCTCCC
DNA 2: TGGTGGCTACGACGGGATT
B25: GACAAAC (DNA:RNA)
RNA: B6 RNA with A25G, G26A, A27C, G28A, U31C
DNA 1: CAATCTGAATTCCGGTCTCCC
DNA 2: TGGTGGCTACGACGGGATT
B26: UCCAUGG (DNA:RNA)
RNA: B1 RNA with U26C, U28A, C31G
DNA 1: CAATCTGAATTCCGGTCTCCC
DNA 2: TGGTGGCTACGACGGGATT
B27: UAUCAUU (DNA:RNA)
RNA: B6 RNA with A25U, G26A, A27U, G28C, A30U
DNA 1: CAATCTGAATTCCGGTCTCCC
DNA 2: TGGTGGCTACGACGGGATT
B28: UAGCAUA (DNA:RNA)
RNA: B6 RNA with A25U, G26A, A27G, G28C, A30U, U31A
DNA 1: CAATCTGAATTCCGGTCTCCC
DNA 2: TGGTGGCTACGACGGGATT
B29: CCCAUCG (DNA:RNA)
RNA: B1 RNA with U25C, U26C, U28A, G30C, C31G
DNA 1: CAATCTGAATTCCGGTCTCCC
DNA 2: TGGTGGCTACGACGGGATT
B30: UACUGGC (DNA:RNA)
RNA: B1 RNA with U26A, U29G
DNA 1: CAATCTGAATTCCGGTCTCCC
DNA 2: TGGTGGCTACGACGGGATT
B31: UUGCCGA (DNA:RNA)
RNA: B1 RNA with C27G, U28C, U29C, C31A
DNA 1: CAATCTGAATTCCGGTCTCCC
DNA 2: TGGTGGCTACGACGGGATT

Target: T1, RBFOX1 RRM RbFoxmut (Fox-RRM*)
Experiment: EMSA; HiTS-Eq, 1 nM pool, 10 min; buffer printed only for the single-RNA assays: 10 mM Tris pH 7.5, 150 mM NaCl, 3.4 mM EDTA, 0.001% NP-40, 30 C
Settings: tags: His6 N-terminal (pET28a); label: 5' 32P
How it was run: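 Purified RbFox RRM, wild type or mutant, was incubated for 10 min in 50 µL with 1 nM of a 5′-radiolabelled RNA pool carrying 7 randomized nucleotides, whose flanks were annealed to DNA oligonucleotides, over a series of increasing protein concentrations. Unbound RNA was resolved on 8% native PAGE, cut out, reverse-transcribed, barcoded by PCR and sequenced on an Illumina HiSeq 2500. Relative association constants were derived from changes in read counts for each RNA species versus the control reaction and normalised to the cognate motif.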

Row | Binder | binding signal
1 | B1 | 0.118 KA relative to UGCAUGU
2 | B2 | 0.106 KA relative to UGCAUGU
3 | B3 | 0.172 KA relative to UGCAUGU
4 | B4 | 0.0812 KA relative to UGCAUGU
5 | B5 | 0.0891 KA relative to UGCAUGU
6 | B6 | 0.0979 KA relative to UGCAUGU
7 | B7 | 0.0917 KA relative to UGCAUGU
8 | B8 | 0.101 KA relative to UGCAUGU
9 | B9 | 0.0689 KA relative to UGCAUGU
10 | B10 | 0.142 KA relative to UGCAUGU
11 | B11 | 0.0691 KA relative to UGCAUGU
12 | B12 | 0.0843 KA relative to UGCAUGU
13 | B13 | 0.0677 KA relative to UGCAUGU
14 | B14 | 0.0809 KA relative to UGCAUGU
15 | B15 | 0.0866 KA relative to UGCAUGU
16 | B16 | 0.0967 KA relative to UGCAUGU

Row | Binder | binding signal
17 | B17 | 0.064 KA relative to UGCAUGU
18 | B18 | 0.12 KA relative to UGCAUGU
19 | B19 | 0.103 KA relative to UGCAUGU
20 | B20 | 0.0895 KA relative to UGCAUGU
21 | B21 | 0.108 KA relative to UGCAUGU
22 | B22 | 0.367 KA relative to UGCAUGU
23 | B23 | 0.0633 KA relative to UGCAUGU
24 | B24 | 0.0907 KA relative to UGCAUGU
25 | B25 | 0.0549 KA relative to UGCAUGU
26 | B26 | 0.0855 KA relative to UGCAUGU
27 | B27 | 0.0737 KA relative to UGCAUGU
28 | B28 | 0.0997 KA relative to UGCAUGU
29 | B29 | 0.0928 KA relative to UGCAUGU
30 | B30 | 0.0942 KA relative to UGCAUGU
31 | B31 | 0.0651 KA relative to UGCAUGU
